Target: T1, viral RNA-dependent RNA-polymerase (RdRp) complex (Human respiratory syncytial virus A, UniProt P28887)
T1 construct: expressed in transfected cells; host or cells: Huh-7 cells
Assay type: cell-based
Experimental: Based on a previously described pT7-RSV-luciferase minigenome reporter (Dochow M, et al. (2012) J Biol Chem 287(9):6878-6891), an RSV minigenome construct was generated under the control of the constitutive RNA pol I promoter (pHH-RSV-repl-firefly). Huh-7 cells were co-transfected with this plasmid and plasmids pRSV-L, pRSV-M2-1, pRSV-N and pRSV-P, respectively, under CMV promoter control. Compounds GPAR-3710 or JMN3-003 were added in serial dilutions, luciferase reporter activities determined 40 hours post-transfection, and EC50 concentrations calculated as above if possible.

T1 sequence (P03421 whole entry): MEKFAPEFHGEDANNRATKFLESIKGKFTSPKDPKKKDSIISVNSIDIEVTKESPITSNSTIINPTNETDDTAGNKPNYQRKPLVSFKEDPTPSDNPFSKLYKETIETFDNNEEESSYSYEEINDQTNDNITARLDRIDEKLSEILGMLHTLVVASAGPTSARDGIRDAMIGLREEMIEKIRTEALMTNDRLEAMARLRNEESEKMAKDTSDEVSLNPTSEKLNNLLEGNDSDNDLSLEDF
T1 sequence (P28887 whole entry): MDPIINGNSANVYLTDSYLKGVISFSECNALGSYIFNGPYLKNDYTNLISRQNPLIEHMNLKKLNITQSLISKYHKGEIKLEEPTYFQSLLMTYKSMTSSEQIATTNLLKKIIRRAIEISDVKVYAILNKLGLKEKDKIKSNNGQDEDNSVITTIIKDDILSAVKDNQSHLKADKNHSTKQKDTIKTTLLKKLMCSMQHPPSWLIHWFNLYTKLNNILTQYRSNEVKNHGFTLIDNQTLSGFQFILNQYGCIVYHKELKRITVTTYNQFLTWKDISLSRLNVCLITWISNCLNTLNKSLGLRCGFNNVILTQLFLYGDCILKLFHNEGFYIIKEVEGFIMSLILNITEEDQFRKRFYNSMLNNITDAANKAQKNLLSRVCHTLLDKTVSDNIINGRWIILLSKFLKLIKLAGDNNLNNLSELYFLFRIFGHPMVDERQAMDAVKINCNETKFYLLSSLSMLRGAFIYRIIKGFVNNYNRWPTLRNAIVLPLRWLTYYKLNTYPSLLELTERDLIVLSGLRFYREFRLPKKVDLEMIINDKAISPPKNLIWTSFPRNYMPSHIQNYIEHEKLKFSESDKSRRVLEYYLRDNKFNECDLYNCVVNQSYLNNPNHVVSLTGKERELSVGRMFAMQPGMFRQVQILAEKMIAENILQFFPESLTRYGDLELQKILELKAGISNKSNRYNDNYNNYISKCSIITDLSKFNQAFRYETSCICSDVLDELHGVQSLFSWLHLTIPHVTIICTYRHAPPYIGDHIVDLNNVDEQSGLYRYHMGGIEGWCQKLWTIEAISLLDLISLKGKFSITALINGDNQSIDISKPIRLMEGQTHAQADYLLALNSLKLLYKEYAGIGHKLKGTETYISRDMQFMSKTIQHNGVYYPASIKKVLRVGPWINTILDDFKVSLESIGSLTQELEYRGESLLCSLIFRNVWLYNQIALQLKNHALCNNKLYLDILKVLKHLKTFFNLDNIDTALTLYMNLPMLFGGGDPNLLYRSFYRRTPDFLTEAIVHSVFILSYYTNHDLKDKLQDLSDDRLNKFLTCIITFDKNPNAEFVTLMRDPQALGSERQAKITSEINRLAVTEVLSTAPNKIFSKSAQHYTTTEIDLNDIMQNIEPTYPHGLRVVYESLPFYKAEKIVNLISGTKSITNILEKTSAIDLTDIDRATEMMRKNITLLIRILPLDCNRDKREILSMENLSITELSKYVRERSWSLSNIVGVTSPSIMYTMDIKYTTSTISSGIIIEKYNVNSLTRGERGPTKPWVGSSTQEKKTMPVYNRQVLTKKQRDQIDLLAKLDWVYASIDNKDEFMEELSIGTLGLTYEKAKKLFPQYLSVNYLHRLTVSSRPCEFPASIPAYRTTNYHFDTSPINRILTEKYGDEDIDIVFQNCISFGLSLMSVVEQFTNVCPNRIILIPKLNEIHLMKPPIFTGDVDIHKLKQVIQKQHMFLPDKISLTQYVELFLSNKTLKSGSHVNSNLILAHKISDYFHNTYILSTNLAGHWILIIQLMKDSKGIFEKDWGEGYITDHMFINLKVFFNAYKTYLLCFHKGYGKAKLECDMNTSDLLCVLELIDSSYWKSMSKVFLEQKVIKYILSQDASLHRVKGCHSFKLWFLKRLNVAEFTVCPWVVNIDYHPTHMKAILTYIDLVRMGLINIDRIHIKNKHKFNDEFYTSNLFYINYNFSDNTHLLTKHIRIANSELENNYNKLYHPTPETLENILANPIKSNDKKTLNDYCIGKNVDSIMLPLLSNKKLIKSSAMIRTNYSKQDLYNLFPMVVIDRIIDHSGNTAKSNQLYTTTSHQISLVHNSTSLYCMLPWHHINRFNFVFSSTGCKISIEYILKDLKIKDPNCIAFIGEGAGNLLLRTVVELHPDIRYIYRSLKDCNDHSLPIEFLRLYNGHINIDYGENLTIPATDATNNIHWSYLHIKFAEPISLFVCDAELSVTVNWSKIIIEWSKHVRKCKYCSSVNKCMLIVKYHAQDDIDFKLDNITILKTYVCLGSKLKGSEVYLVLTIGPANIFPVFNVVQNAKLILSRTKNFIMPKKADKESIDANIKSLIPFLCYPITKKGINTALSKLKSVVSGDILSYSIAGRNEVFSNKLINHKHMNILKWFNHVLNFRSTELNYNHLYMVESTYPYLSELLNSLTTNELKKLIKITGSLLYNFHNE

With Cc1ccc(-n2c(SCC(=O)N/N=C/c3c4ccccc4cc4ccccc34)nnc2-c2ccccc2)cc1 [GPAR-3710] the “activity of the viral RdRp complex” value was “remained unaffected”.

From US10100372B2, “Recombinant RSV reporter virus” (priority 2014, dated 2018)
